Measured values taken from the supplement of paper PMC12230231.

These sequences were tested on SIVsab (simian immunodeficiency virus of sabaeus monkeys), single-cycle GFP reporter, in CRFK cells (assay: enrichment among uninfected cells over input (fold); higher = stronger restriction). Details: library: human / rhesus combinations.
Method: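 Pools of CRFK cells expressing variants of the TRIM5α v1 loop were challenged with the single-cycle reporter, sorted by GFP and sequenced; mean of two replicates.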

Row | Sequence | enrichment
1 | MASGILVNVKEEVTCPICLELLTQPLSLDCGHSFCQACLTANHKKSMLDKGESSCPVCRISYQPENIRPNRHVANIVEKLREVKLSPEGQKVDHCARHGEKLLLFCQEDGKVICWLCERSQEHRGHHTFLTEEVAREYQVKLQAALEMLRQKQQEAEELEADIREEKASWKTQIQYDKTNVLADFEQLRDILDWEESNELQNLEKEEEDILKSLTNSETEMVQQTQSLRELISDLEHRLQGSVMELLQGVDGVIKRTENVTLKKPETFPKNQRRVFRAPDLKGMLEVFRELTDVRRYWVDVTVAPNNISCAVISEDKRQVSSPKPQIIYGAPGTRFTFPTLTNFNYCTGILGSQSITSGKHYWEVDVSKKTAWILGVCAGFQPDAMCNIEKNENYQPKYGYWVIGLEEGVKCSAFQDSSFHTPSVPFIVPLSVIICPDRVGVFLDYEACTVSFFNITNHGFLIYKFSHCSFSQPVFPYLNPRKCGVPMTLCSPSS [human TRIM5α, 330-340 = GAPGTRFTFPTLT] | 0.219 ± 0.026
2 | MASGILVNVKEEVTCPICLELLTQPLSLDCGHSFCQACLTANHKKSMLDKGESSCPVCRISYQPENIRPNRHVANIVEKLREVKLSPEGQKVDHCARHGEKLLLFCQEDGKVICWLCERSQEHRGHHTFLTEEVAREYQVKLQAALEMLRQKQQEAEELEADIREEKASWKTQIQYDKTNVLADFEQLRDILDWEESNELQNLEKEEEDILKSLTNSETEMVQQTQSLRELISDLEHRLQGSVMELLQGVDGVIKRTENVTLKKPETFPKNQRRVFRAPDLKGMLEVFRELTDVRRYWVDVTVAPNNISCAVISEDKRQVSSPKPQIIYGAPGTLYTFPTLVNFNYCTGILGSQSITSGKHYWEVDVSKKTAWILGVCAGFQPDAMCNIEKNENYQPKYGYWVIGLEEGVKCSAFQDSSFHTPSVPFIVPLSVIICPDRVGVFLDYEACTVSFFNITNHGFLIYKFSHCSFSQPVFPYLNPRKCGVPMTLCSPSS [human TRIM5α, 330-340 = GAPGTLYTFPTLV] | 0.0435 ± 0.061
3 | MASGILVNVKEEVTCPICLELLTQPLSLDCGHSFCQACLTANHKKSMLDKGESSCPVCRISYQPENIRPNRHVANIVEKLREVKLSPEGQKVDHCARHGEKLLLFCQEDGKVICWLCERSQEHRGHHTFLTEEVAREYQVKLQAALEMLRQKQQEAEELEADIREEKASWKTQIQYDKTNVLADFEQLRDILDWEESNELQNLEKEEEDILKSLTNSETEMVQQTQSLRELISDLEHRLQGSVMELLQGVDGVIKRTENVTLKKPETFPKNQRRVFRAPDLKGMLEVFRELTDVRRYWVDVTVAPNNISCAVISEDKRQVSSPKPQIIYQAPGTLYTFPSLVNFNYCTGILGSQSITSGKHYWEVDVSKKTAWILGVCAGFQPDAMCNIEKNENYQPKYGYWVIGLEEGVKCSAFQDSSFHTPSVPFIVPLSVIICPDRVGVFLDYEACTVSFFNITNHGFLIYKFSHCSFSQPVFPYLNPRKCGVPMTLCSPSS [human TRIM5α, 330-340 = QAPGTLYTFPSLV] | 0.337 ± 0.13

Same assay, conditions: library: insertions and deletions

Row | Sequence | enrichment
4 | MASGILVNVKEEVTCPICLELLTQPLSLDCGHSFCQACLTANHKKSMLDKGESSCPVCRISYQPENIRPNRHVANIVEKLREVKLSPEGQKVDHCARHGEKLLLFCQEDGKVICWLCERSQEHRGHHTFLTEEVAREYQVKLQAALEMLRQKQQEAEELEADIREEKASWKTQIQYDKTNVLADFEQLRDILDWEESNELQNLEKEEEDILKSLTNSETEMVQQTQSLRELISDLEHRLQGSVMELLQGVDGVIKRTENVTLKKPETFPKNQRRVFRAPDLKGMLEVFRELTDVRRYWVDVTVAPNNISCAVISEDKRQVSSPKPQIIYGARTFVNFNYCTGILGSQSITSGKHYWEVDVSKKTAWILGVCAGFQPDAMCNIEKNENYQPKYGYWVIGLEEGVKCSAFQDSSFHTPSVPFIVPLSVIICPDRVGVFLDYEACTVSFFNITNHGFLIYKFSHCSFSQPVFPYLNPRKCGVPMTLCSPSS [human TRIM5α, 5-codon deletion at 333] | 0.753 ± 0.69
5 | MASGILVNVKEEVTCPICLELLTQPLSLDCGHSFCQACLTANHKKSMLDKGESSCPVCRISYQPENIRPNRHVANIVEKLREVKLSPEGQKVDHCARHGEKLLLFCQEDGKVICWLCERSQEHRGHHTFLTEEVAREYQVKLQAALEMLRQKQQEAEELEADIREEKASWKTQIQYDKTNVLADFEQLRDILDWEESNELQNLEKEEEDILKSLTNSETEMVQQTQSLRELISDLEHRLQGSVMELLQGVDGVIKRTENVTLKKPETFPKNQRRVFRAPDLKGMLEVFRELTDVRRYWVDVTVAPNNISCAVISEDKRQVSSPKPQIIRYQTFVNFNYCTGILGSQSITSGKHYWEVDVSKKTAWILGVCAGFQPDAMCNIEKNENYQPKYGYWVIGLEEGVKCSAFQDSSFHTPSVPFIVPLSVIICPDRVGVFLDYEACTVSFFNITNHGFLIYKFSHCSFSQPVFPYLNPRKCGVPMTLCSPSS [human TRIM5α, 6-codon deletion at 329] | 0.688 ± 0.29
6 | MASGILVNVKEEVTCPICLELLTQPLSLDCGHSFCQACLTANHKKSMLDKGESSCPVCRISYQPENIRPNRHVANIVEKLREVKLSPEGQKVDHCARHGEKLLLFCQEDGKVICWLCERSQEHRGHHTFLTEEVAREYQVKLQAALEMLRQKQQEAEELEADIREEKASWKTQIQYDKTNVLADFEQLRDILDWEESNELQNLEKEEEDILKSLTNSETEMVQQTQSLRELISDLEHRLQGSVMELLQGVDGVIKRTENVTLKKPETFPKNQRRVFRAPDLKGMLEVFRELTDVRRYWVDVTVAPNNISCAVISEDKRQVSSPKPQIIYGAKPQIIYGARGTRYQTFVNFNYCTGILGSQSITSGKHYWEVDVSKKTAWILGVCAGFQPDAMCNIEKNENYQPKYGYWVIGLEEGVKCSAFQDSSFHTPSVPFIVPLSVIICPDRVGVFLDYEACTVSFFNITNHGFLIYKFSHCSFSQPVFPYLNPRKCGVPMTLCSPSS [human TRIM5α, 8-codon duplication at 324] | 0.373 ± 0.37
7 | MASGILVNVKEEVTCPICLELLTQPLSLDCGHSFCQACLTANHKKSMLDKGESSCPVCRISYQPENIRPNRHVANIVEKLREVKLSPEGQKVDHCARHGEKLLLFCQEDGKVICWLCERSQEHRGHHTFLTEEVAREYQVKLQAALEMLRQKQQEAEELEADIREEKASWKTQIQYDKTNVLADFEQLRDILDWEESNELQNLEKEEEDILKSLTNSETEMVQQTQSLRELISDLEHRLQGSVMELLQGVDGVIKRTENVTLKKPETFPKNQRRVFRAPDLKGMLEVFRELTDVRRYWVDVTVAPNNISCAVISEDKRQVSSPKPQIIYQTFVNFNYCTGILGSQSITSGKHYWEVDVSKKTAWILGVCAGFQPDAMCNIEKNENYQPKYGYWVIGLEEGVKCSAFQDSSFHTPSVPFIVPLSVIICPDRVGVFLDYEACTVSFFNITNHGFLIYKFSHCSFSQPVFPYLNPRKCGVPMTLCSPSS [human TRIM5α, 7-codon deletion at 330] | 0.685 ± 0.13
8 | MASGILVNVKEEVTCPICLELLTQPLSLDCGHSFCQACLTANHKKSMLDKGESSCPVCRISYQPENIRPNRHVANIVEKLREVKLSPEGQKVDHCARHGEKLLLFCQEDGKVICWLCERSQEHRGHHTFLTEEVAREYQVKLQAALEMLRQKQQEAEELEADIREEKASWKTQIQYDKTNVLADFEQLRDILDWEESNELQNLEKEEEDILKSLTNSETEMVQQTQSLRELISDLEHRLQGSVMELLQGVDGVIKRTENVTLKKPETFPKNQRRVFRAPDLKGMLEVFRELTDVRRYWVDVTVAPNNISCAVISEDKRQVSSPKPQIIYGARGTRYQTGILGSQSITSGKHYWEVDVSKKTAWILGVCAGFQPDAMCNIEKNENYQPKYGYWVIGLEEGVKCSAFQDSSFHTPSVPFIVPLSVIICPDRVGVFLDYEACTVSFFNITNHGFLIYKFSHCSFSQPVFPYLNPRKCGVPMTLCSPSS [human TRIM5α, 8-codon deletion at 339] | 0.844 ± 0.34
9 | MASGILVNVKEEVTCPICLELLTQPLSLDCGHSFCQACLTANHKKSMLDKGESSCPVCRISYQPENIRPNRHVANIVEKLREVKLSPEGQKVDHCARHGEKLLLFCQEDGKVICWLCERSQEHRGHHTFLTEEVAREYQVKLQAALEMLRQKQQEAEELEADIREEKASWKTQIQYDKTNVLADFEQLRDILDWEESNELQNLEKEEEDILKSLTNSETEMVQQTQSLRELISDLEHRLQGSVMELLQGVDGVIKRTENVTLKKPETFPKNQRRVFRAPDLKGMLEVFRELTDVRRYWVDVTVAPNNISCAVISEDKRQVSSPKGARGTRYQTFVNFNYCTGILGSQSITSGKHYWEVDVSKKTAWILGVCAGFQPDAMCNIEKNENYQPKYGYWVIGLEEGVKCSAFQDSSFHTPSVPFIVPLSVIICPDRVGVFLDYEACTVSFFNITNHGFLIYKFSHCSFSQPVFPYLNPRKCGVPMTLCSPSS [human TRIM5α, 5-codon deletion at 325] | 0.546 ± 0.25

± gives the standard deviation of the averaged measurements. Restriction of a single-cycle SIVsab GFP reporter by TRIM5α v1-loop variants in CRFK cells. Human variants: read share among cells still uninfected after two challenges over input, higher = gained restriction. Rhesus variants: share among infected cells over input, higher = lost restriction. Reporter dose not given per row. No active / inactive call per row; the paper calls a change when both replicates lie above its controls (mean + 2 SD of stop or wild-type variants, or the top frameshift score). Residues outside the varied loop are taken from Swiss-Prot. The paper reads the human single-substitution scores as noise; they and the rhesus combinations repeat poorly (rank correlation 0.3 to 0.4), indel scores repeat only for the top variants, rhesus substitutions well (0.9).
